± gives the standard error. Variants at the background level are over-represented here.
B1: glmS ribozyme (parent)
chain: AUAAAAGCGCCAGAACUACAGAAAUGUAGUUGACGAGGAGGAGGUUUAUCGAAUUUUCGGCGGAUGCCUCCAAA

Assays:
Conditions in all cases: with glucosamine-6-phosphate
glucosamine-6-phosphate [1] = variants of: B1; test: kcat; higher = faster cleavage; RNA array
How it was run: (§1)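 E. coli RNA polymerase transcribed barcoded ribozyme variants in situ on sequenced MiSeq chips, which were tracked via a hybridised Cy3 probe at 37 °C. Tiles were imaged over ~14 h after glucosamine-6-phosphate (40 μM to 10 mM) in HEPES/KCl/Mg(OAc)2 buffer was flowed in. Normalised per-tile medians were fit to one- or two-exponential decays for kobs, and kcat and KM came from weighted Michaelis–Menten fits.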

glucosamine-6-phosphate [2] = variants of: B1; test: self-cleavage kobs at 160 uM GlcN6P; higher = faster cleavage; RNA array
How it was run: as §1

glucosamine-6-phosphate [3] = variants of: B1; test: self-cleavage kobs at 40 uM GlcN6P; higher = faster cleavage; RNA array
How it was run: as §1

glucosamine-6-phosphate [4] = variants of: B1; test: self-cleavage kobs at 10000 uM GlcN6P; higher = faster cleavage; RNA array
How it was run: as §1

glucosamine-6-phosphate [5] = variants of: B1; test: self-cleavage kobs at 640 uM GlcN6P; higher = faster cleavage; RNA array
How it was run: as §1

glucosamine-6-phosphate [6] = variants of: B1; test: self-cleavage kobs at 2500 uM GlcN6P; higher = faster cleavage; RNA array
How it was run: as §1

| Variant | kcat (glucosamine-6-phosphate [1]) [s⁻¹] | self-cleavage kobs at 160 uM GlcN6P (glucosamine-6-phosphate [2]) [s⁻¹] | self-cleavage kobs at 40 uM GlcN6P (glucosamine-6-phosphate [3]) [s⁻¹] | self-cleavage kobs at 10000 uM GlcN6P (glucosamine-6-phosphate [4]) [s⁻¹] | self-cleavage kobs at 640 uM GlcN6P (glucosamine-6-phosphate [5]) [s⁻¹] | self-cleavage kobs at 2500 uM GlcN6P (glucosamine-6-phosphate [6]) [s⁻¹] |
| --- | --- | --- | --- | --- | --- | --- |
| G38C U45C | < 1e-05 | < 1e-05 | – | – | – | – |
| G38C U45G | < 1e-05 | < 1e-05 | – | – | – | – |
| C8A A15G | – | – | < 1e-05 | – | – | – |
| C10G A14C C70U | – | – | < 1e-05 | – | – | – |
| G37A A52C | < 1e-05 | < 1e-05 | – | – | – | – |
| G9C U49C A52U | – | – | < 1e-05 | < 1e-05 | – | – |
| C8G A12U | – | < 1e-05 | < 1e-05 | < 1e-05 | < 1e-05 | < 1e-05 |
| G9C G32A | – | < 1e-05 | < 1e-05 | < 1e-05 | – | < 1e-05 |
| G7A C11U U31A A33G G43C U56A | – | – | < 1e-05 | – | – | – |
| C11G G37A U54A U56A C58A C61U | – | – | < 1e-05 | < 1e-05 | – | – |
| C8U G38C G43A G44C G63U | – | – | < 1e-05 | – | – | – |
| G9A U55C C71A | – | – | < 1e-05 | – | – | – |
| G41U A52C | < 1e-05 | < 1e-05 | < 1e-05 | – | < 1e-05 | – |
| C10U A14C U65C | – | < 1e-05 | < 1e-05 | – | < 1e-05 | – |
| C8G A52U G63U A64G | – | – | < 1e-05 | < 1e-05 | – | – |
| C11G G37C G40C U45A | – | – | < 1e-05 | – | – | < 1e-05 |
| A6C A52U C67G | – | – | < 1e-05 | – | – | – |
| A6C G40U A48C | – | – | < 1e-05 | – | – | – |
| C8G A36U | – | < 1e-05 | < 1e-05 | < 1e-05 | < 1e-05 | < 1e-05 |
| C8U A33U G37A U46G | – | – | < 1e-05 | – | – | – |
| G7U A33U A64G C70G | – | – | < 1e-05 | – | – | – |
| C11G G40A C50G U55C C70U | – | – | < 1e-05 | < 1e-05 | – | – |
| G7C A52U | – | < 1e-05 | < 1e-05 | – | < 1e-05 | < 1e-05 |
| C8U G59U A64G | – | – | < 1e-05 | < 1e-05 | – | – |
| C10U A53U G59C C68G | – | – | < 1e-05 | – | – | – |
| A6C A12G | – | < 1e-05 | < 1e-05 | – | < 1e-05 | – |
| A6G G29C A64U C67U | – | – | < 1e-05 | < 1e-05 | – | – |

| Variant | kcat (glucosamine-6-phosphate [1]) [s⁻¹] | self-cleavage kobs at 160 uM GlcN6P (glucosamine-6-phosphate [2]) [s⁻¹] | self-cleavage kobs at 40 uM GlcN6P (glucosamine-6-phosphate [3]) [s⁻¹] | self-cleavage kobs at 10000 uM GlcN6P (glucosamine-6-phosphate [4]) [s⁻¹] | self-cleavage kobs at 640 uM GlcN6P (glucosamine-6-phosphate [5]) [s⁻¹] | self-cleavage kobs at 2500 uM GlcN6P (glucosamine-6-phosphate [6]) [s⁻¹] |
| --- | --- | --- | --- | --- | --- | --- |
| G9U U47G U54C | – | – | < 1e-05 | < 1e-05 | – | – |
| G9A A12C G43A G63U | – | – | < 1e-05 | – | – | – |
| C8U C11U U57G C67G | – | – | 0.000617 ± 0.0003 | 0.000608 ± 0.00023 | 7.99e-05 ± 3.8e-05 | – |
| C10U A14G G29U | – | – | < 1e-05 | – | – | – |
| C10G U45A | – | – | < 1e-05 | – | < 1e-05 | – |
| C10G G43C | – | < 1e-05 | < 1e-05 | < 1e-05 | < 1e-05 | – |
| G7U C16U A39U U57C G62A | – | – | < 1e-05 | < 1e-05 | – | – |
| G7U C10A | – | < 1e-05 | < 1e-05 | < 1e-05 | < 1e-05 | < 1e-05 |
| G7U U31C C50A U56A | – | – | < 1e-05 | < 1e-05 | – | – |
| A6C A15G | – | – | < 1e-05 | – | – | – |
| A6C A48C C68U | – | – | < 1e-05 | < 1e-05 | – | – |
| G9A G13A | – | < 1e-05 | < 1e-05 | – | < 1e-05 | < 1e-05 |
| G7U C34A | – | < 1e-05 | < 1e-05 | < 1e-05 | < 1e-05 | – |
| C10U C11G G43C G59A | – | < 1e-05 | < 1e-05 | – | – | < 1e-05 |
| C8A C10G A15U | – | – | < 1e-05 | < 1e-05 | – | – |
| G38A U54A | < 1e-05 | – | – | – | – | < 1e-05 |
| C10A C70G | – | – | 2.53e-05 ± 1e-05 | – | 0.000116 ± 1.8e-05 | – |
| C10U U49A | – | – | < 1e-05 | < 1e-05 | < 1e-05 | < 1e-05 |
| G43U U69A | < 1e-05 | – | – | – | – | – |
| G7C G51A | – | < 1e-05 | < 1e-05 | < 1e-05 | < 1e-05 | – |
| G9U U55G | – | – | < 1e-05 | < 1e-05 | < 1e-05 | < 1e-05 |
| C8A A20U G62U | – | – | < 1e-05 | – | – | – |
| A6G C8A C58G | – | – | < 1e-05 | < 1e-05 | – | – |
| C11G G44C C58A | – | – | < 1e-05 | < 1e-05 | – | – |
| A6G A14U C68A | – | < 1e-05 | < 1e-05 | < 1e-05 | < 1e-05 | – |
| C11U A64C | – | – | < 1e-05 | < 1e-05 | – | – |

— the supplement of paper PMC7125110
